The test has as its system BALB/cJ mice, ADJ-PC-6 ip tumor, median survival T/C. The experiment in a line: NCI In Vivo Anticancer Drug Screen. Data for tumor model ADJ-PC-6 (intraperitoneal) in BALB/cJ mice. Particulars: endpoint: median survival time; dose: 0.25 mg/kg/injection; schedule: Q01DX009 (ip); vehicle: alkali diluted with saline; higher = longer survival. The protocol:
The antitumor activity of compounds was measured in mice bearing transplantable tumors. Survival or tumor size were measured and the results are expressed as the measurement made in the treated group (T) divided by the measurement made in the vehicle treated control group (C). The tumor model used in this assay is ADJ-PC-6 (intraperitoneal) in BALB/cJ mice

T/C data for one compound are collected here from PubChem BioAssay AID184 (DTP/NCI, 2004).

Toxic doses and inconclusive results are not listed. The source holds more than one record for some entries. Only these are listed. The source may hold further records. Results that share an entry are repeats across runs, samples, wells, individuals or studies.

As for `Nc1nc(=S)c2[nH]cnc2[nH]1`, the T/C is 116 % of control and 171 % of control.
